{"source": "PubChem BioAssay AID2147", "about": "(National Center for Advancing Translational Sciences (NCATS), 2009)", "note": "Where “and” joins values, the source holds several entries; their conditions need not be identical. Identical values can stand only once. The whole screen tested about 230,000 compounds, of which about 3,600 (1.6%) were called active. This list was built around the results that the source calls inconclusive (neither active nor inactive); the mix of calls is not that of the screen. The call rests on the fitted dose curve; in most records, active means well fitted inhibition curve with a large enough effect (not every such curve was filed as active); inconclusive means small, poorly fitted or top-dose-only effect, or another doubt; inactive means no such curve, though single readings can be large or run the other way. A potency beside an inconclusive call is a rough fit, not a confirmed value. Further: nearly all actives have a fitted effect of over 50% in size. Potency means the concentration at half of the fitted maximal effect; tags describe the fitted curve by direction and shape.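 Wherever activity change, negative = inhibition is given: 0% = wells with enzyme and -100% = buffer wells without enzyme.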", "data": [{"biological_target": "Lysine-specific demethylase 4E (Homo sapiens) (UniProt B2RXH2)", "sequence (B2RXH2 whole entry, looked up, the tested form may be a part)": "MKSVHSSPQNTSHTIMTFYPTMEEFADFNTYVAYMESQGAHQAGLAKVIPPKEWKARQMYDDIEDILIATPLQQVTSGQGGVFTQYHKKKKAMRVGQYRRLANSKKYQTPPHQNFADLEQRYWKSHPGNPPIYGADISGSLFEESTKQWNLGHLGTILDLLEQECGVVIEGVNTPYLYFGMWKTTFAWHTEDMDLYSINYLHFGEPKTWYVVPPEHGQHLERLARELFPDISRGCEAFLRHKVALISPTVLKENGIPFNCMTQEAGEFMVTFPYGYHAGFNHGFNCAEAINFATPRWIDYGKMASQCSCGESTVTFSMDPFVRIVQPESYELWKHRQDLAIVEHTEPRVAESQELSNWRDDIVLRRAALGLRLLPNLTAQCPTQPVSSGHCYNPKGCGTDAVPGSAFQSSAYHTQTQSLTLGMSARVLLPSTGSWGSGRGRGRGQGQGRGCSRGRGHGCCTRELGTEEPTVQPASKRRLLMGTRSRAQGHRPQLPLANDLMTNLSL", "test": "qHTS Assay for Inhibitors of Human Jumonji Domain Containing 2E (JMJD2E)", "details": "JMJD2E catalytic domain, FDH-coupled NADH fluorescence (FDH is formaldehyde dehydrogenase); series mostly up to 57.1 µM; activity change, negative = inhibition: at the top concentration", "values": [{"smiles": "Fc1ccccc1Cc1noc(CN2CCCC(CN3CCOCC3)C2)n1", "note": "(centres undefined)", "activity change, negative = inhibition": "inactive: 9.42%"}, {"smiles": "Cc1nc2c(C(=O)N3CCCC3)cnn2c(C)c1Cc1c(F)cccc1Cl", "Potency": "inconclusive: 7.08 µM [inhibitor, single point]"}, {"smiles": "O=c1oc2c(CN3CCCCC3)c(O)ccc2c2c1CCCCC2", "Potency": "active: 3.16 µM"}, {"smiles": "O=[N+]([O-])c1ccc(OCc2cnc(Cl)s2)c([N+](=O)[O-])c1", "Potency": "inconclusive: 39.8 µM [inhibitor, single point]"}, {"smiles": "COc1cc(C(C#N)N2N=C(c3ccccc3)CC2c2ccccc2)ccc1O", "note": "(centres undefined)", "activity change, negative = inhibition": "inactive: -25.2%"}, {"smiles": "CCOC(=O)c1ccccc1NC(=O)c1cn(-c2ccc(OC)cc2)c(=O)c2ccccc12", "Potency": "inconclusive: 10 µM [inhibitor, partial curve]"}, {"smiles": "Cc1[nH]n(-c2ccccc2)c(=O)c1C=Nc1cccc(F)c1", "Potency": "inconclusive: 31.6 µM [inhibitor, single point]"}, {"smiles": "CCCN(CCC)CCCNC(=S)Nc1ccc2nc(N3CCCC3)cc(C)c2c1", "Potency": "inconclusive: 35.5 µM [inhibitor, partial curve]"}, {"smiles": "O=C(COc1ccc(F)cc1)NNC(=O)c1cc2ccccc2oc1=O", "Potency": "inconclusive: 25.1 µM [inhibitor, single point]"}, {"smiles": "CCS(=O)(=O)N1CCN(c2ccc(C(=O)NC3C4CC5CC(C4)CC3C5)cc2[N+](=O)[O-])CC1", "note": "(centres undefined)", "activity change, negative = inhibition": "inactive: -6.24%"}, {"smiles": "O=C(CCCOc1ccccc1)N1CCN(c2ccccn2)CC1", "Potency": "inconclusive: 28.2 µM [inhibitor, partial curve]"}, {"smiles": "Cc1cccc(CSc2nnc(-c3ccccn3)n2N)c1", "activity change, negative = inhibition": "inactive: -2.76%"}, {"smiles": "COc1ccc(N2C(=O)c3ccccc3NC23CCCC3)cc1", "Potency": "inconclusive: 31.6 µM [inhibitor, partial curve]"}, {"smiles": "C/C(CC(C)C)=N\\NS(=O)(=O)c1ccc(C)c([N+](=O)[O-])c1", "Potency": "inconclusive: 28.2 µM [inhibitor, single point]"}, {"smiles": "CN1C(=O)CSc2ccc(NC(=O)N3CCN(c4ccccn4)CC3)cc21", "Potency": "inconclusive: 25.1 µM [inhibitor, partial curve]"}, {"smiles": "CCCn1c(=O)c2c(C(F)(F)F)cc(-c3ccco3)nc2n(CCC)c1=O", "Potency": "inconclusive: 0.794 µM [inhibitor, full curve]"}, {"smiles": "COc1ccc(-c2c(C#N)c(SCC(N)=O)nc3c2CCCC3)cc1", "Potency": "inconclusive: 35.5 µM [inhibitor, single point]"}, {"smiles": "Cc1ccc(Cl)cc1N1CCN(C(=O)CN2C(=O)c3cccc4cccc2c34)CC1", "Potency": "inconclusive: 8.91 µM [inhibitor, single point]"}, {"smiles": "Cc1ccc(NN=Nc2nc3c([nH]2)c(=O)n(C)c(=O)n3C)cc1", "Potency": "inconclusive: 35.5 µM [inhibitor, single point]"}, {"smiles": "Cc1ccc(-n2nc(-c3ccc(OC(F)(F)F)cc3)cc2N)cc1C", "Potency": "inconclusive: 35.5 µM [inhibitor, single point]"}, {"smiles": "CCOC(=O)CC(=O)CSc1nc2ccc(OC)cc2cc1C", "activity change, negative = inhibition": "inactive: -3.41%"}, {"smiles": "CCOc1ccc2oc(C(=O)NC3CCN(Cc4ccccc4)CC3)c(C)c2c1", "Potency": "inconclusive: 3.98 µM [inhibitor, full curve]"}, {"smiles": "Cc1cc(C)c(S(=O)(=O)ON2C(=O)c3ccccc3C2=O)cc1C", "Potency": "inconclusive: 31.6 µM [inhibitor, partial curve]"}, {"smiles": "CCCN1C(=O)/C(=C2\\SC(N3CCCCC3)=NC2=O)c2ccccc21", "activity change, negative = inhibition": "inactive: 2.05%"}, {"smiles": "Cc1c(/C=C2\\SC(=Nc3cccc(C(=O)O)c3)NC2=O)c2ccccc2n1C", "activity change, negative = inhibition": "inactive: -7.5%"}, {"smiles": "N#CCC(=O)NNC(=S)NC(=O)C(c1ccccc1)c1ccccc1", "Potency": "inconclusive: 25.1 µM [inhibitor, partial curve]"}, {"smiles": "CC1=C(C(=O)OCc2ccccc2)C(c2ccc(C3CCCCC3)cc2)NC(=O)N1CCCCCC(=O)O", "note": "(centres undefined)", "activity change, negative = inhibition": "inactive: -7.34%"}, {"smiles": "CN(Cc1ccccc1)c1ncc(C=O)s1", "Potency": "inconclusive: 35.5 µM [inhibitor, single point]"}, {"smiles": "COc1cc2c(cc1NS(=O)(=O)N1CCCCC1)oc1ccccc12", "Potency": "inconclusive: 31.6 µM [inhibitor, single point]"}, {"smiles": "Cc1nnc(Nc2ccc(C(=O)N3CCOCC3)cc2)c2ccccc12", "activity change, negative = inhibition": "inactive: -0.971%"}, {"smiles": "OCCNc1nc(Nc2ccc(Br)cc2)nc2ccccc12", "Potency": "inconclusive: 31.6 µM [inhibitor, partial curve]"}, {"smiles": "Cc1ccc(NC(=S)N/N=C/c2c(Cl)cccc2Cl)c(C)c1", "activity change, negative = inhibition": "inactive: 7.02%"}, {"smiles": "O=C(N/N=C/c1c(F)c(F)c(F)c(F)c1F)c1ccc(Cn2cc(Br)cn2)o1", "activity change, negative = inhibition": "inactive: -0.535%"}, {"smiles": "O=C(NC(Cc1ccccc1)C(=O)O)/C(=C\\c1ccco1)NC(=O)c1ccccc1", "note": "(centres undefined)", "Potency": "inconclusive: 39.8 µM [inhibitor, single point]"}, {"smiles": "COc1ccc(CC(=O)Nc2ccc(-c3noc(-c4cc(OC)c(OC)c(OC)c4)n3)cc2)cc1", "Potency": "inconclusive: 35.5 µM [inhibitor, partial curve]"}, {"smiles": "O=C(CCc1ccc(S(=O)(=O)NCCc2ccccc2)cc1)NCc1ccco1", "activity change, negative = inhibition": "inactive: 3.01%"}, {"smiles": "CC(=O)Oc1cccc2c1C(=O)c1c(OC(C)=O)cc(C(=O)O)cc1C2=O", "Potency": "inactive and inconclusive: 31.6 µM [inhibitor, single point]"}, {"smiles": "O=C(CN(C(=O)Cn1nnc(-c2ccccc2F)n1)c1cnc2ccccc2c1)NCC1CCCO1", "note": "(centres undefined)", "Potency": "inconclusive: 39.8 µM [inhibitor, single point]"}, {"smiles": "C=CCN(c1ccccc1)S(=O)(=O)c1cccc(C(=O)Nc2nc3ccccc3[nH]2)c1", "Potency": "active: 28.2 µM"}, {"smiles": "COC(=O)c1[nH]c2ccc(C)cc2c1NC(=O)CN1CCN(c2ccc(F)cc2)CC1", "Potency": "inconclusive: 25.1 µM [inhibitor, partial curve]"}, {"smiles": "Cc1ccc2nc(C(F)(F)F)c(C#N)c(N)c2c1", "activity change, negative = inhibition": "inactive: -21.5%"}, {"smiles": "CCOC(=O)c1[nH]c2c(c1C)C(=O)CC(c1ccco1)C2", "note": "(centres undefined)", "activity change, negative = inhibition": "inactive: -24.5%"}, {"smiles": "O=C(NCCCn1ccnc1)c1cc(-c2ccc(Cl)cc2)nc2ccccc12", "Potency": "inconclusive: 28.2 µM [inhibitor, single point]"}, {"smiles": "COc1cc2oc(=O)c3c(c2cc1OCC(=O)c1c(C)n(C)c2ccccc12)CCCC3", "Potency": "inconclusive: 31.6 µM [inhibitor, partial curve]"}]}]}
